# Assay results published in paper PMC9911399, “Two distinct binding modes provide the RNA-binding protein RbFox with extraordinary sequence specificity”.
# Changes are numbered by the printed parent chain; changes in the protein carry UniProt numbers. The list shows a part of the results.
# B1: CUAACGG (DNA:RNA)
# RNA: GGGAGACCGGAAUUCAGAUUGUCCCUAACGGUUAAAUCCCGUCGUAGCCACCA
# DNA 1: CAATCTGAATTCCGGTCTCCC
# DNA 2: TGGTGGCTACGACGGGATT
# B2: GACCAAG (DNA:RNA)
# RNA: B1 RNA with C25G, U26A, A27C, A28C, C29A, G30A
# DNA 1: CAATCTGAATTCCGGTCTCCC
# DNA 2: TGGTGGCTACGACGGGATT
# B3: AUGUAUA (DNA:RNA)
# RNA: B1 RNA with C25A, A27G, A28U, C29A, G30U, G31A
# DNA 1: CAATCTGAATTCCGGTCTCCC
# DNA 2: TGGTGGCTACGACGGGATT
# B4: AUUCCUG (DNA:RNA)
# RNA: B1 RNA with C25A, A27U, A28C, G30U
# DNA 1: CAATCTGAATTCCGGTCTCCC
# DNA 2: TGGTGGCTACGACGGGATT
# B5: CCCUUCU (DNA:RNA)
# RNA: B1 RNA with U26C, A27C, A28U, C29U, G30C, G31U
# DNA 1: CAATCTGAATTCCGGTCTCCC
# DNA 2: TGGTGGCTACGACGGGATT
# B6: CAUUCAU (DNA:RNA)
# RNA: B1 RNA with U26A, A27U, A28U, G30A, G31U
# DNA 1: CAATCTGAATTCCGGTCTCCC
# DNA 2: TGGTGGCTACGACGGGATT
# B7: UUGUACA (DNA:RNA)
# RNA: B1 RNA with C25U, A27G, A28U, C29A, G30C, G31A
# DNA 1: CAATCTGAATTCCGGTCTCCC
# DNA 2: TGGTGGCTACGACGGGATT
# B8: CCAGAGA (DNA:RNA)
# RNA: B1 RNA with U26C, A28G, C29A, G31A
# DNA 1: CAATCTGAATTCCGGTCTCCC
# DNA 2: TGGTGGCTACGACGGGATT
# B9: GCGAUGC (DNA:RNA)
# RNA: B1 RNA with C25G, U26C, A27G, C29U, G31C
# DNA 1: CAATCTGAATTCCGGTCTCCC
# DNA 2: TGGTGGCTACGACGGGATT
# B10: GUGGUCA (DNA:RNA)
# RNA: B1 RNA with C25G, A27G, A28G, C29U, G30C, G31A
# DNA 1: CAATCTGAATTCCGGTCTCCC
# DNA 2: TGGTGGCTACGACGGGATT
# B11: UAGAGCC (DNA:RNA)
# RNA: B1 RNA with C25U, U26A, A27G, C29G, G30C, G31C
# DNA 1: CAATCTGAATTCCGGTCTCCC
# DNA 2: TGGTGGCTACGACGGGATT
# B12: GAUGGAG (DNA:RNA)
# RNA: B1 RNA with C25G, U26A, A27U, A28G, C29G, G30A
# DNA 1: CAATCTGAATTCCGGTCTCCC
# DNA 2: TGGTGGCTACGACGGGATT
# B13: UAGACGC (DNA:RNA)
# RNA: B1 RNA with C25U, U26A, A27G, G31C
# DNA 1: CAATCTGAATTCCGGTCTCCC
# DNA 2: TGGTGGCTACGACGGGATT
# B14: AUGUACC (DNA:RNA)
# RNA: B1 RNA with C25A, A27G, A28U, C29A, G30C, G31C
# DNA 1: CAATCTGAATTCCGGTCTCCC
# DNA 2: TGGTGGCTACGACGGGATT
# B15: GCAGGUC (DNA:RNA)
# RNA: B1 RNA with C25G, U26C, A28G, C29G, G30U, G31C
# DNA 1: CAATCTGAATTCCGGTCTCCC
# DNA 2: TGGTGGCTACGACGGGATT
# B16: UUUAGUG (DNA:RNA)
# RNA: B1 RNA with C25U, A27U, C29G, G30U
# DNA 1: CAATCTGAATTCCGGTCTCCC
# DNA 2: TGGTGGCTACGACGGGATT
# B17: UCAGCUU (DNA:RNA)
# RNA: B1 RNA with C25U, U26C, A28G, G30U, G31U
# DNA 1: CAATCTGAATTCCGGTCTCCC
# DNA 2: TGGTGGCTACGACGGGATT
# B18: AGUAACC (DNA:RNA)
# RNA: B1 RNA with C25A, U26G, A27U, C29A, G30C, G31C
# DNA 1: CAATCTGAATTCCGGTCTCCC
# DNA 2: TGGTGGCTACGACGGGATT
# B19: CUGGUUU (DNA:RNA)
# RNA: B1 RNA with A27G, A28G, C29U, G30U, G31U
# DNA 1: CAATCTGAATTCCGGTCTCCC
# DNA 2: TGGTGGCTACGACGGGATT
# B20: AACCGGU (DNA:RNA)
# RNA: B1 RNA with C25A, U26A, A27C, A28C, C29G, G31U
# DNA 1: CAATCTGAATTCCGGTCTCCC
# DNA 2: TGGTGGCTACGACGGGATT
# Target: T1, RBFOX1 RRM (Homo sapiens, UniProt Q9NWB1 109-208)
# T1 sequence: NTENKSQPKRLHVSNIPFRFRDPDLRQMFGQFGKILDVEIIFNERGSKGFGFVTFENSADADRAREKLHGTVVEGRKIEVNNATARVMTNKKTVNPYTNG
# Assay: EMSA; HiTS-Eq, 1 nM pool, 10 min; buffer printed only for the single-RNA assays: 10 mM Tris pH 7.5, 150 mM NaCl, 3.4 mM EDTA, 0.001% NP-40, 30 C
# Conditions: tags: His6 N-terminal (pET28a); label: 5' 32P
# Outline: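 A pool of RNA with 7 randomized nucleotides, 5′-radiolabelled and with DNA-annealed flanks, was equilibrated at 1 nM for 10 min in 50 µL with purified RbFox RRM, wild type or mutant, across increasing protein concentrations. Free RNA was separated by 8% native PAGE, excised, reverse-transcribed, barcoded by PCR and sequenced. Relative association constants were obtained from read-count changes of each RNA species versus the control reaction and normalised to the cognate motif.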
row,Binder,binding signal
1,B1,0.00643 KA relative to UGCAUGU
2,B2,0.00444 KA relative to UGCAUGU
3,B3,0.00344 KA relative to UGCAUGU
4,B4,0.0057 KA relative to UGCAUGU
5,B5,0.01 KA relative to UGCAUGU
6,B6,0.000796 KA relative to UGCAUGU
7,B7,0.0117 KA relative to UGCAUGU
8,B8,0.0103 KA relative to UGCAUGU
9,B9,0.0167 KA relative to UGCAUGU
10,B10,0.0194 KA relative to UGCAUGU
11,B11,0.00427 KA relative to UGCAUGU
12,B12,0.00961 KA relative to UGCAUGU
13,B13,0.00461 KA relative to UGCAUGU
14,B14,0.00598 KA relative to UGCAUGU
15,B15,0.0095 KA relative to UGCAUGU
16,B16,0.0205 KA relative to UGCAUGU
17,B17,0.00722 KA relative to UGCAUGU
18,B18,0.00475 KA relative to UGCAUGU
19,B19,0.0246 KA relative to UGCAUGU
20,B20,0.00472 KA relative to UGCAUGU
